We go through 23 molecules from the antibiotic and cytotoxicity screens of Wong et al. (2023).

This is one part of the list.

One test deals with HSkMC. Briefly: cytotoxicity call (relative viability < 0.9). The conditions noted are these: 10 µM.
A further test relates to HepG2. Briefly: cytotoxicity call (relative viability < 0.9). The conditions noted are these: 10 µM.
The next test concerns S. aureus RN4220. Briefly: growth inhibition call (relative growth <= 0.2). To be noted: 50 µM.

In the case of `CC(C)N1C[C@H](C)[C@@H](CN(C)Cc2ccc(Cl)cc2)Oc2c(NC(=O)c3ccncc3)cccc2C1=O`, the cytotoxicity call in the test with HSkMC and in the test on HepG2 was “inactive” in each case. Further, in the test with S. aureus RN4220, the growth inhibition call was “inactive”.

Consider `COCCOC(=O)N1C(=O)[C@@]2(c3cc(C#CC4(O)CCCCCC4)ccc31)[C@H](c1ccc(O)cc1)N1[C@H](c3ccccc3)[C@H](c3ccccc3)OC(=O)[C@H]1[C@@H]2C(N)=O`, for which the cytotoxicity call in the test with HSkMC and in the test with HepG2 was “inactive” each time. Moreover, the growth inhibition call in the test on S. aureus RN4220 was “inactive”.

For the molecule `COc1ccc(C#Cc2ccc3c(c2)[C@]2(C(=O)N3)[C@H](C(=O)Nc3nc4ccccc4s3)[C@H]3C(=O)O[C@H](c4ccccc4)[C@H](c4ccccc4)N3[C@@H]2c2ccc(O)cc2)cc1`, the cytotoxicity call with HSkMC and in the test on HepG2 was “inactive” each time. Also, the growth inhibition call in the test on S. aureus RN4220 is “inactive”.

With `C[C@@H]1CN([C@@H](C)CO)C(=O)c2cccc(NS(=O)(=O)c3cccs3)c2O[C@H]1CN(C)C(=O)Nc1cccc2ccccc12`, the cytotoxicity call with HSkMC and in the test on HepG2 was “inactive” each time. Also, the growth inhibition call in the test with S. aureus RN4220 was “inactive”.

On to `COc1ccc(CN(C)C[C@@H]2OCCCC[C@H](C)Oc3ccc(NC(=O)NC4CCCCC4)cc3C(=O)N([C@@H](C)CO)C[C@H]2C)cc1`, for which the cytotoxicity call in the test with HSkMC and in the test with HepG2 was “inactive” in each case. Besides, the growth inhibition call in the test with S. aureus RN4220 is “inactive”.

As to `C[C@@H]1CN([C@H](C)CO)C(=O)c2cc(NC(=O)Nc3cccc4ccccc34)ccc2O[C@@H](C)CCCCO[C@H]1CN(C)Cc1ccc(Cl)c(Cl)c1`, the cytotoxicity call with HSkMC and in the test with HepG2 was “inactive” in each case. The growth inhibition call in the test on S. aureus RN4220 was “inactive”.

Turning to `CN1CCN(C(=O)C[C@H]2CC[C@@H]3[C@H](COc4ccc(NC(=O)C5CCCCC5)cc4C(=O)N3C)O2)CC1`, the cytotoxicity call in the test with HSkMC and in the test with HepG2 was “inactive” in each case. For the same molecule, the growth inhibition call in the test with S. aureus RN4220 is “inactive”.

Regarding `CC(C)NC(=O)N(C)C[C@H]1Oc2ccc(NS(=O)(=O)c3ccccc3)cc2C(=O)N([C@@H](C)CO)C[C@@H]1C`, the cytotoxicity call with HSkMC and with HepG2 was “inactive” in each case. In addition, the growth inhibition call in the test with S. aureus RN4220 was “inactive”.

Take `C[C@@H]1CN([C@H](C)CO)C(=O)c2cc(C#CCN(C)C)cnc2O[C@@H]1CN(C)C(=O)CN1CCOCC1`: the cytotoxicity call in the test on HSkMC and with HepG2 was “inactive” each time. The growth inhibition call in the test on S. aureus RN4220 was “inactive”.

Regarding `C[C@H](CO)N1C[C@H](C)[C@@H](CN(C)Cc2ccc(C(=O)Nc3ccccc3N)cc2)Oc2c(NC(=O)c3nc4ccccc4s3)cccc2C1=O`, the cytotoxicity call in the test on HSkMC is “inactive”. In the test with HepG2, the cytotoxicity call was “active”. Also, the growth inhibition call with S. aureus RN4220 was “inactive”.

On to `C[C@@H]1CCCCO[C@@H](CN(C)CC2CCCCC2)[C@H](C)CN([C@@H](C)CO)C(=O)c2cc(NC(=O)CCCCCC(=O)Nc3ccccc3N)ccc2O1`, for which the cytotoxicity call in the test on HSkMC and with HepG2 was “inactive” throughout. Moreover, the growth inhibition call in the test with S. aureus RN4220 was “inactive”.

Regarding `CC(C)NC(=O)N(C)C[C@@H]1Oc2cc(C#Cc3ccc(F)cc3)ccc2S(=O)(=O)N([C@H](C)CO)C[C@H]1C`, the cytotoxicity call in the test with HSkMC and with HepG2 was “inactive” throughout. Also, the growth inhibition call with S. aureus RN4220 was “inactive”.

In the case of `C[C@@H]1CN([C@@H](C)CO)C(=O)c2cc(NC(=O)C3CC3)ccc2O[C@@H]1CN(C)S(=O)(=O)c1ccccc1`, the cytotoxicity call with HSkMC and in the test on HepG2 was “inactive” in each case. Besides, in the test on S. aureus RN4220, the growth inhibition call was “inactive”.

For `C[C@H](CO)N1C[C@H](C)[C@@H](CN(C)Cc2cccc(C(=O)O)c2)Oc2cc(Br)ccc2S1(=O)=O`, the cytotoxicity call in the test with HSkMC and with HepG2 was “inactive” in each case. Besides, the growth inhibition call in the test on S. aureus RN4220 is “inactive”.

Take `Cc1ccc(S(=O)(=O)Nc2ccc3c(c2)C(=O)N([C@H](C)CO)C[C@@H](C)[C@H](CN(C)S(C)(=O)=O)OCCCC[C@@H](C)O3)cc1`: the cytotoxicity call in the test with HSkMC and with HepG2 was “inactive” each time. For the same molecule, the growth inhibition call in the test on S. aureus RN4220 is “inactive”.

As to `CC(C)NC(=O)Nc1ccc2c(c1)C(=O)N([C@H](C)CO)C[C@H](C)[C@@H](CN(C)C(=O)Nc1ccccc1)OCCCC[C@H](C)O2`, the cytotoxicity call with HSkMC and with HepG2 was “inactive” each time. The growth inhibition call in the test with S. aureus RN4220 is “inactive”.

In the case of `CS(=O)(=O)Nc1ccc2c(c1)[C@@H]1C[C@@H](CC(=O)NCC3CC3)O[C@@H](CO)[C@@H]1O2`, the cytotoxicity call in the test with HSkMC and in the test with HepG2 was “inactive” throughout. The growth inhibition call with S. aureus RN4220 is “inactive”.

On to `C[C@@H]1CCCCO[C@@H](CN(C)Cc2ccccc2)[C@H](C)CN([C@H](C)CO)C(=O)c2cc(NC(=O)Cc3ccccc3)ccc2O1`, for which the cytotoxicity call in the test on HSkMC (human skeletal muscle cells) and in the test on HepG2 was “inactive” each time. Besides, the growth inhibition call in the test with S. aureus RN4220 is “inactive”.

On to `O=C(CCCCC(=O)N/N=C/[C@H](O)[C@@H](O)[C@@H](O)[C@H](O)C(=O)O)NO`, for which the cytotoxicity call in the test with HSkMC and with HepG2 was “inactive” each time. For the same molecule, the growth inhibition call in the test with S. aureus RN4220 was “inactive”.

As for `C[C@H](CO)N1C[C@H](C)[C@H](CN(C)Cc2ccncc2)Oc2ccc(NS(=O)(=O)c3cn(C)cn3)cc2C1=O`, the cytotoxicity call with HSkMC and in the test on HepG2 was “inactive” in each case. Moreover, the growth inhibition call in the test on S. aureus RN4220 is “inactive”.

On to `C[C@@H]1CCCCO[C@@H](CN(C)Cc2ccc(C(F)(F)F)cc2)[C@H](C)CN([C@@H](C)CO)C(=O)c2cc(NC(=O)CCC(F)(F)F)ccc2O1`, for which the cytotoxicity call in the test with HSkMC is “inactive”. The cytotoxicity call in the test on HepG2 was “active”. In the test on S. aureus RN4220, the growth inhibition call is “inactive”.

In the case of `CCCNC(=O)N[C@@H]1CC[C@H](CC(=O)N2CCN(C)CC2)O[C@@H]1CO`, the cytotoxicity call with HSkMC and in the test with HepG2 was “inactive” throughout. Further, in the test with S. aureus RN4220, the growth inhibition call is “inactive”.

Regarding `C[C@@H]1CCCCO[C@@H](CN(C)CC2CCCCC2)[C@@H](C)CN([C@@H](C)CO)C(=O)c2cc(NS(=O)(=O)c3ccc(Cl)cc3)ccc2O1`, the cytotoxicity call with HSkMC is “inactive”. Also, the cytotoxicity call in the test with HepG2 was “active”. The growth inhibition call in the test with S. aureus RN4220 was “inactive”.
